Source: PMC10668032
This is one part of the list. At the low end of the ranking the order means little.

Each sequence was assayed against SIX1 homeodomain (reference allele) (UniProt Q15475) (assay: universal protein binding microarray). Conditions: Universal all-10-mer PBM (8x60K, AMADID 030236), 300 nM GST-tagged protein, Alexa Fluor 488 anti-GST; buffer, salt, pH and temperature not stated; high values mean tight binding; most listed sequences are background and not binding sites; double strand, one strand shown.
For GAACAACC, the binding signal was -0.105 E-score.
AGGTGTTA was tested, and the binding signal was 0.203 E-score.
CAGTGTAC showed a binding signal of -0.144 E-score.
Sequence CTGGCTGC has a binding signal of -0.145 E-score.
In the case of GGTTGAAA, the binding signal is reported as -0.0944 E-score.
AGGATTAT was tested, and the binding signal was 0.257 E-score.
For GTCAACAA, the binding signal was -0.0407 E-score.
Work on GCAACGGA yielded a binding signal of 0.0437 E-score.
GATGTCAC showed a binding signal of -0.0872 E-score.
CGCATATA was tested, and the binding signal was 0.158 E-score.
CAGGTTGA was tested, and the binding signal was -0.00732 E-score.
With AACAAGGG the binding signal was -0.225 E-score.
With GCTACTAC the binding signal was 0.0636 E-score.
CGCGTAAA showed a binding signal of -0.265 E-score.
In the case of AACTAGGC, the binding signal is reported as -0.197 E-score.
Sequence GGAGAGAA has a binding signal of -0.25 E-score.
For GTTATAAA, the binding signal was -0.13 E-score.
In the case of GGCCCATA, the binding signal is reported as -0.0125 E-score.
Work on ACACACCT yielded a binding signal of 0.132 E-score.
For TAACAACA, the binding signal was -0.187 E-score.
CGAACAGC showed a binding signal of -0.136 E-score.
In the case of GGCTGAGA, the binding signal is reported as 0.0491 E-score.
Sequence AGGGACTC has a binding signal of -0.222 E-score.
GAGTGACC showed a binding signal of -0.0311 E-score.
In the case of GAAATCAC, the binding signal is reported as -0.0941 E-score.
CGGGGCTA was tested, and the binding signal was 0.104 E-score.
AGTTTCTC gave a binding signal of -0.121 E-score.
Sequence ATGTGTCC has a binding signal of -0.0824 E-score.
For GGAAAACC, the binding signal was -0.159 E-score.
Sequence GATCGCAA has a binding signal of 0.242 E-score.
With ACAGCTCG the binding signal was -0.122 E-score.
For TGCCCACA, the binding signal was -0.208 E-score.
Work on GCACCTAC yielded a binding signal of -0.268 E-score.
CAAATCAC showed a binding signal of -0.179 E-score.
AGTAACGG was tested, and the binding signal was -0.11 E-score.
CTATTGAA showed a binding signal of -0.194 E-score.
ACAAGCCG was tested, and the binding signal was -0.186 E-score.
In the case of GTGCAGGA, the binding signal is reported as -0.0837 E-score.
With TACACTCA the binding signal was 0.0336 E-score.
Work on CCTCTCTC yielded a binding signal of -0.0605 E-score.
Work on ACCAGATG yielded a binding signal of -0.0274 E-score.
With CATTGTAG the binding signal was -0.0567 E-score.
GCAATACA showed a binding signal of 0.119 E-score.
CACGTGTC was tested, and the binding signal was 0.0339 E-score.
With AAACTCAT the binding signal was -0.119 E-score.
AACAGGTC was tested, and the binding signal was -0.286 E-score.
Sequence ACCTGACC has a binding signal of 0.0357 E-score.
Work on CAGATCGA yielded a binding signal of 0.277 E-score.
In the case of AGAACTCA, the binding signal is reported as -0.0885 E-score.
In the case of CAGGGTAA, the binding signal is reported as 0.0774 E-score.
GGCTTGCA showed a binding signal of -0.0878 E-score.
In the case of CGGGGCGA, the binding signal is reported as 0.136 E-score.
AATGATAA was tested, and the binding signal was 0.0479 E-score.
AGTATAGA was tested, and the binding signal was 0.195 E-score.
Sequence GCTAACCA has a binding signal of -0.214 E-score.
For CCAGACAA, the binding signal was -0.166 E-score.
With ACACACTG the binding signal was -0.0238 E-score.
Work on GTACAAAC yielded a binding signal of -0.244 E-score.
With CCAGAGGC the binding signal was -0.216 E-score.
For AGCGAGCG, the binding signal was -0.182 E-score.
AACCGGAC gave a binding signal of -0.0533 E-score.
In the case of CAGCGGGG, the binding signal is reported as 0.176 E-score.
With CCTATTCG the binding signal was -0.0766 E-score.
Sequence CCGAATGC has a binding signal of -0.235 E-score.
For ACGTTCCA, the binding signal was -0.207 E-score.
CGAAAATC was tested, and the binding signal was -0.126 E-score.
With AAATTTTG the binding signal was -0.366 E-score.
With ACGCACAG the binding signal was 0.0126 E-score.
CGCTTAGC was tested, and the binding signal was -0.26 E-score.
ACGCTATC gave a binding signal of 0.296 E-score.
GAGCAAAA showed a binding signal of -0.335 E-score.
With AGACTCGG the binding signal was -0.0525 E-score.
For AGCACTCC, the binding signal was 0.018 E-score.
For ATAGGGGC, the binding signal was 0.228 E-score.
TTTATAAA was tested, and the binding signal was -0.0635 E-score.
For ATGTGTGA, the binding signal was -0.0866 E-score.
With GCCACCGA the binding signal was -0.109 E-score.
In the case of GGGTGTTA, the binding signal is reported as 0.282 E-score.
TCAGTCAA gave a binding signal of -0.0827 E-score.
Work on ATAGCTAG yielded a binding signal of 0.13 E-score.
CGCAAACG showed a binding signal of -0.188 E-score.
Sequence ACGGGCTC has a binding signal of -0.14 E-score.
Sequence GACGGGGA has a binding signal of 0.133 E-score.
With CCTCATTC the binding signal was -0.138 E-score.
AGAAGGGC gave a binding signal of 0.0108 E-score.
With ATCCAAAA the binding signal was 0.151 E-score.
In the case of AAGTCACC, the binding signal is reported as -0.34 E-score.
For CGACTATC, the binding signal was 0.246 E-score.
For CCCTGCGC, the binding signal was -0.225 E-score.
CCTTCTGA was tested, and the binding signal was 0.0645 E-score.
GGCCACTA gave a binding signal of -0.133 E-score.
Sequence CTTGTGCC has a binding signal of 0.0117 E-score.
With CCAAACCA the binding signal was -0.109 E-score.
TCTGTTCA showed a binding signal of -0.137 E-score.
With CCCGTCTC the binding signal was 0.205 E-score.
AGAAAGCT was tested, and the binding signal was -0.234 E-score.
Work on ACAGGCTG yielded a binding signal of -0.179 E-score.
For CGTTTATA, the binding signal was 0.059 E-score.
GGACTGTA showed a binding signal of -0.0181 E-score.
With ACCAGGGG the binding signal was 0.111 E-score.
In the case of GTACCCGA, the binding signal is reported as -0.0334 E-score.
With AGATGAGC the binding signal was -0.0122 E-score.
For GATACCGC, the binding signal was 0.461 E-score.
GCGCTAAA was tested, and the binding signal was -0.167 E-score.
For CGACTGAC, the binding signal was -0.181 E-score.
With ATAGGGCA the binding signal was 0.0854 E-score.
In the case of CTTATCGC, the binding signal is reported as 0.111 E-score.
CACTTAAG gave a binding signal of -0.0738 E-score.
CGCAGGGC gave a binding signal of 0.0944 E-score.
AAAGGGCG showed a binding signal of -0.213 E-score.
Sequence ATCGAGAT has a binding signal of 0.324 E-score.
Sequence GTTATAAC has a binding signal of -0.243 E-score.
For GCTGAGCA, the binding signal was -0.105 E-score.
In the case of GCAGGTAC, the binding signal is reported as -0.206 E-score.
With CCGCCGTC the binding signal was -0.111 E-score.
CTTACCCC gave a binding signal of 0.153 E-score.
ATGTTTTC showed a binding signal of -0.23 E-score.
CCCCGATA gave a binding signal of 0.347 E-score.
AGTAGAAC showed a binding signal of -0.0724 E-score.
AGATAAGA was tested, and the binding signal was 0.114 E-score.
ACATCATG gave a binding signal of -0.0411 E-score.
ACGGGATG was tested, and the binding signal was 0.0307 E-score.
ACGCCAAC was tested, and the binding signal was -0.0608 E-score.
For CGCACACC, the binding signal was 0.11 E-score.
Sequence CGCTAGCC has a binding signal of -0.191 E-score.
In the case of TGCCCTAA, the binding signal is reported as -0.294 E-score.
For AAGACGAC, the binding signal was 0.0916 E-score.
Sequence ACCGTCAT has a binding signal of -0.00137 E-score.
For GAATAGTC, the binding signal was -0.111 E-score.
AACCATCG showed a binding signal of -0.0607 E-score.
CGCTGCTC was tested, and the binding signal was -0.193 E-score.
CGGTCGAC gave a binding signal of -0.039 E-score.
In the case of GCGGTTCA, the binding signal is reported as -0.273 E-score.
CCTCAGAG gave a binding signal of -0.101 E-score.
CTCTTGTA showed a binding signal of -0.0529 E-score.
For CCGTGTAC, the binding signal was 0.127 E-score.
With CGATTTTA the binding signal was -0.166 E-score.
CCCTGTGC was tested, and the binding signal was 0.0301 E-score.
AAAGAAAA gave a binding signal of -0.296 E-score.
In the case of GGGATAGA, the binding signal is reported as 0.256 E-score.
For CGAGAGTA, the binding signal was 0.135 E-score.
With CTATCCAC the binding signal was 0.219 E-score.
CCAATGCG showed a binding signal of 0.0208 E-score.
Work on ATTACACA yielded a binding signal of 0.0975 E-score.
In the case of AGGTGCTG, the binding signal is reported as -0.126 E-score.
Sequence GATTCCCC has a binding signal of 0.0765 E-score.
GAGCATGA was tested, and the binding signal was -0.186 E-score.
With CCACTCAC the binding signal was -0.0474 E-score.
TGGACACA was tested, and the binding signal was -0.0786 E-score.
For GAGGCGGC, the binding signal was -0.0904 E-score.
For GATAGAAA, the binding signal was 0.00081 E-score.
Work on TCCTTGCA yielded a binding signal of -0.157 E-score.
With AATTTCAT the binding signal was 0.0136 E-score.
CGGTGTGC gave a binding signal of 0.11 E-score.
For AAAAGTGT, the binding signal was -0.201 E-score.
AGATTTAG was tested, and the binding signal was 0.0296 E-score.
Work on AAGTTTCA yielded a binding signal of -0.134 E-score.
With CTGGGAAC the binding signal was -0.108 E-score.
ACACTGCG showed a binding signal of -0.0582 E-score.
For AGGCCCCT, the binding signal was -0.0255 E-score.
Work on ATACGTTG yielded a binding signal of 0.19 E-score.
AATCATGT showed a binding signal of 0.0103 E-score.
For AGCTATAC, the binding signal was 0.235 E-score.
In the case of CGACCCTA, the binding signal is reported as 0.124 E-score.
Sequence ACACCTGC has a binding signal of 0.318 E-score.
For CCCAGCAG, the binding signal was -0.152 E-score.
ATCTAACG gave a binding signal of -0.0311 E-score.
Work on AAACGCTG yielded a binding signal of -0.402 E-score.
ATACATCA gave a binding signal of 0.196 E-score.
GGTCATAA was tested, and the binding signal was -0.0462 E-score.
Work on GCGTGACC yielded a binding signal of -0.0448 E-score.
In the case of AACTCAAG, the binding signal is reported as -0.277 E-score.
